The record followed here is PubChem BioAssay (NCI).

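A five-concentration, 48-hour dose response in 96-well plates underlies each endpoint, interpolated linearly between surrounding concentrations. GI50 = concentration required for 50% inhibition of growth. Definition used: TGI = concentration required for complete inhibition of growth.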

The subject of this assay is NCI-H322M lung. Put plainly: growth of human tumour cells (NCI), 48 h.

Consider `CCN1C(=O)N(CC)C2NNC(Sc3c(C(=O)O)c4ccccc4n(CC(C)C)c3=O)=NC21` (centres undefined), for which the GI50 is 6.19 µM and the TGI was more than 100 µM.

`COc1ccc(-c2nc3ccc(-c4nnc(SCc5ccccc5)o4)cc3[nH]2)cc1OC`: the GI50 is more than 100 µM and the TGI was more than 100 µM.
